# Measurements as given in PubChem BioAssay AID1645882 (National Center for Advancing Translational Sciences (NCATS), 2021).
# About 120 (0.75%) of roughly 16,000 compounds were called active. Not shown: some 4% with an inconclusive outcome. Calls come from the whole dose curve; as a rule, active = well fitted inhibition curve with a large enough effect; inconclusive = small, poorly fitted or top-dose-only effect; inactive = no such curve, though single readings can be large or run the other way. Some of the results follow.
# Molecular target: Rap guanine nucleotide exchange factor 3 (Homo sapiens) (UniProt O95398)
# Assay: Validation qHTS for antagonist of cAMP-regulated guanine nucleotide exchange factor 3 (EPAC1); note: nearly all actives have a fitted effect of over 75% in size;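 for activity change, negative = inhibition: plate controls were DMSO for no effect and ATA control for full effect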
# Conditions: EPAC1 Rap1B-BODIPY-GDP exchange, fluorescence; series mostly up to 150 µM; activity change, negative = inhibition: at the top concentration
# Outline: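 Nucleotide exchange followed as fluorescence loss when BODIPY-GDP leaves Rap1B (480 nm excitation, 540 nm emission), read at 5 min intervals over 30 min. Reaction: 100 nM EPAC1, 250 nM RAP1B-BODIPY-GDP, 50 uM GDP; ATA and DMSO define normalization.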
# Potency is the fitted concentration of half-maximal effect.
# Chain of UniProt O95398 (O95398 whole entry, looked up): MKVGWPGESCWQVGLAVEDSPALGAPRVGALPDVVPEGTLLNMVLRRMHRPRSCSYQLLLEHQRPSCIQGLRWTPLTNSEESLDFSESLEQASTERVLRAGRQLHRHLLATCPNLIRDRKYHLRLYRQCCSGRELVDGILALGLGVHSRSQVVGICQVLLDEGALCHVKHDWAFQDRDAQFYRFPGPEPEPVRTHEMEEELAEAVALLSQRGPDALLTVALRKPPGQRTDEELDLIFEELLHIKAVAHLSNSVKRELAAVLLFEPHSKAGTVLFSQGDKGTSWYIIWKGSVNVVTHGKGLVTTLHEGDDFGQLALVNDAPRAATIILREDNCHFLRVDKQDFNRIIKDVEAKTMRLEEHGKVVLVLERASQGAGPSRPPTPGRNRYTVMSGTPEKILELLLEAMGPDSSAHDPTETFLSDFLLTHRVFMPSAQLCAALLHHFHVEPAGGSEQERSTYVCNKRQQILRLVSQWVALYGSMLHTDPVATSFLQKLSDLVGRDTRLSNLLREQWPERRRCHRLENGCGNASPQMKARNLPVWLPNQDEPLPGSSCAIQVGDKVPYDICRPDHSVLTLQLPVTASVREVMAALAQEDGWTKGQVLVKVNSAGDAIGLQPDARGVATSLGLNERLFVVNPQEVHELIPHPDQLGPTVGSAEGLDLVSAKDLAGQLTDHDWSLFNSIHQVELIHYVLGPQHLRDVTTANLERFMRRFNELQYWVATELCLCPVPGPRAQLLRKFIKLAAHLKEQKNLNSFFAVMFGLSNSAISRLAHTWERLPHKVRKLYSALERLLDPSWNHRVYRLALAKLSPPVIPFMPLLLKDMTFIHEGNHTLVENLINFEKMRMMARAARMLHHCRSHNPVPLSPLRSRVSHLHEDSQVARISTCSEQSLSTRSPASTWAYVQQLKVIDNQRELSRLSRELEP
SMILES,"activity change, negative = inhibition",Potency
COC(=O)N1CCC[C@@]2(CCN(c3ncccn3)C2)C1,inactive: 18.4%,–
CCN1CCC[C@H]1CNC(=O)c1cc(S(N)(=O)=O)ccc1OC,inactive,–
Cn1c(=O)c(-c2ccc(Cl)cc2)nc2cnc(N3CCNCC3)nc21,inactive: 8.74%,–
CCCCCCCCCCCCC(C(=O)O)C(C)C(=O)O (configuration not stated),inactive: 1.9%,–
Nc1ccc(S(N)(=O)=O)cc1,inactive,–
Cc1noc(C)c1-c1nc(N(C)Cc2ccco2)c2ccccc2n1,inactive: -29.5%,–
CCOC(=O)N1CCN(Cc2ccc3c(c2)CN(C(=O)c2cc(-c4ccccc4)on2)CCO3)CC1,inactive: -13.6%,–
CC1CCN(CCCC(=O)c2ccc(F)cc2)CC1,inactive: 2.59%,–
O=C(Nc1ccccc1)N1CC2(CCN(C(=O)c3cc(C(F)(F)F)cc(C(F)(F)F)c3)CC2)C1,inactive: -4.84%,–
COC(=O)C1CCN(Cc2ccc3c(c2)CN(C(=O)c2cc4ccccc4n2C)CCO3)CC1,inactive: 11.1%,–
O=S(=O)(NCCCCCCc1ccccc1)c1cccc2c(Cl)cccc12,inactive: -21.7%,–
CCOc1nc2cccc(C(=O)OC(C)OC(=O)OC3CCCCC3)c2n1Cc1ccc(-c2ccccc2-c2nn[nH]n2)cc1 (configuration not stated),–,active: 89.1 µM
CN(C)Cc1ccccc1-c1ccc2ncnc(NC3CC3)c2c1,inactive: -24.5%,–
CC(=O)OC[C@@]12C(=O)[C@@H](O)[C@@H](C)[C@]3(C[C@@H](c4ccoc4)O[C@@H]3OC(C)=O)[C@H]1CCC[C@]21CO1,inactive: 23.4%,–
O=C(OC1Cc2c(O)cc(O)cc2OC1c1cc(O)c(O)c(O)c1-c1c(C2Oc3cc(O)cc(O)c3CC2OC(=O)c2cc(O)c(O)c(O)c2)cc(O)c(O)c1O)c1cc(O)c(O)c(O)c1 (configuration not stated),–,active: 63.1 µM
C[C@H](N)CCCP(=O)(O)O,inactive: -0.925%,–
COc1cccc(Cn2c(=O)c(-c3ccc(F)cc3)nc3cnc(OC)nc32)c1,inactive: 8.18%,–
CCCC(=O)O[C@]1(C(=O)CCl)[C@H](C)C[C@@H]2[C@H]3CCC4=CC(=O)C=C[C@]4(C)[C@@]3(F)C(=O)C[C@@]21C,inactive: 3.69%,–
O=C(c1ccco1)N1CCC[C@@]2(CCN(c3ccccn3)C2)C1,inactive: 12.3%,–
CC(O)(C(=O)Nc1ccc(S(=O)(=O)c2ccccc2)cc1)C(F)(F)F (configuration not stated),inactive,–
O=C(C1CC12CCN(Cc1cccc3cccnc13)CC2)N1CCN(Cc2cccs2)CC1 (configuration not stated),inactive: -7.91%,–
CC(C)CN1CCC(=O)N(CCC#N)CC1,inactive: 23.8%,–
O=c1c(-c2cccs2)nc2cnc(Nc3ccccc3)nc2n1C[C@H]1CCCO1,inactive: 50.1%,–
COc1cc(Br)c(C[N+]2(CCOCCC3CCC4CC3C4(C)C)CCOCC2)cc1OC (configuration not stated),inactive: 23%,–
CC1=C(C(=O)OCCN(Cc2ccccc2)c2ccccc2)C(c2cccc([N+](=O)[O-])c2)C(P2(=O)OCC(C)(C)CO2)=C(C)N1 (configuration not stated),inactive: 8.54%,–
Cc1c(C(=O)NC(C)(C)C)sc2ncnc(NCCN(C)C)c12,inactive: -8.82%,–

SMILES,"activity change, negative = inhibition",Potency
O=C1CCN(Cc2ccccc2)CCN1[C@H](CO)Cc1ccccc1,inactive,–
O=C(c1csnn1)N1CCC2(CC1)CCN(C(c1ccccc1)c1ccccc1)CC2,inactive: 6.28%,–
CC(CCc1ccc(O)cc1)NCCc1ccc(O)c(O)c1 (configuration not stated),inactive,–
Cc1cnc(C)c(-c2cccc3c2OC(CNC(=O)c2cc(C)on2)C3)n1 (configuration not stated),inactive: 8.44%,–
c1ccc(Nc2ncnc3ccc(-c4ccoc4)cc23)cc1,inactive: 7.72%,–
Cc1cn([C@H]2C[C@H](O)[C@@H](CO)O2)c(=O)[nH]c1=O,inactive,–
CC(C)NC(=O)N1CCC2(CC1)CCN(S(=O)(=O)c1ccccc1)CC2,inactive: 6.22%,–
N[C@@H](Cn1cc(F)c(=O)[nH]c1=O)C(=O)O,inactive: -17.5%,–
O=C(O)/C=C/c1ccccc1,inactive: 13.4%,–
CNc1cc(-c2ccccc2C(F)(F)F)ncn1,inactive: 2.7%,–
Cc1c(C(=O)NCC(C)(C)N2CCOCC2)cnn1-c1ncc2c(n1)-c1ccccc1CC2,inactive: -0.766%,–
COc1cccc(CN(C)C(=O)c2cnn(-c3ncc4c(n3)-c3ccccc3CCC4)c2C)c1,inactive: -18.5%,–
CC12CCC(C1)C(C)(C)C2=O (configuration not stated),inactive: -4.09%,–
COc1ccccc1CN1CCC2(CC1)CCN(C(=O)c1ccco1)CC2,inactive: 20.8%,–
COc1ncc2nc(C)c(=O)n(C[C@H]3CCCO3)c2n1,inactive: 11.9%,–
COCCn1c(=O)c(-c2ccc(Cl)cc2)nc2cnc(N3CCNCC3)nc21,inactive: 3.63%,–
O=C(O)CC/C=C\C[C@@H]1CO[C@H](c2ccccc2Cl)O[C@@H]1c1ccccc1O,inactive: 2.15%,–
Cc1cccc(CNc2ncncc2-c2cccnc2)c1,inactive: -5.47%,–
Nc1nc2c(c(=O)[nH]1)N=C(CNc1ccc(C(=O)NC(CCC(=O)O)C(=O)O)cc1)CN2 (configuration not stated),inactive: 23.3%,–
O=C(NCCN1Cc2ccccc2OC(c2ccccc2F)C1)c1cncs1 (configuration not stated),inactive: 6.68%,–
CN(C)c1ccc(-c2nc(N(C)C)c3ccccc3n2)cc1,inactive: -8.45%,–
O=C(O)CCC/C=C\C[C@@H]1[C@@H](/C=C/[C@H](O)C2Cc3ccccc3C2)[C@@H](F)C[C@@H]1O,inactive: 3.98% [at 75.8 µM],–
CC12CCC(C[N+](C)(CCC[N+](C)(C)C)C1)C2(C)C (configuration not stated),inactive: -3.27%,–
Cn1cc(-c2nc3cnc(Oc4ccccc4)nc3n(Cc3cccs3)c2=O)c2ccccc21,inactive: 7.52%,–
CC1=C(C(=O)O)N2C(=O)[C@@H](NC(=O)[C@H](N)c3ccc(O)cc3)[C@H]2SC1,inactive: 12.6% [at 75.8 µM],–
CN1CCN(c2ncncc2-c2ccoc2)CC1,inactive: 13.3%,–

SMILES,"activity change, negative = inhibition",Potency
NS(=O)(=O)c1cc2c(cc1Cl)NC(Cc1ccccc1)NS2(=O)=O (configuration not stated),inactive: 14%,–
CN(CC1(C)CCCO1)S(=O)(=O)c1ccc(Cl)c(S(N)(=O)=O)c1 (configuration not stated),inactive: 33.3%,–
CC(CCC(=O)O)C1CCC2C3CC[C@@H]4CCCC[C@@]4(C)C3CC[C@@]12C (some centres not stated),inactive: 7.33%,–
C[C@@H](O)[C@H]1C(=O)N2C(C(=O)O)=C(SCCN=CN)C[C@H]12,inactive,–
O=S1(=O)CCO[C@H]2CCCC[C@@H]2N1Cc1ccccc1,inactive: 6.18%,–
N#CC(=C(/N)Sc1ccccc1N)/C(C#N)=C(\N)Sc1ccccc1N,inactive,–
CN(C)C(=O)c1ccc(-c2nc(N(C)C)c3ccccc3n2)cc1,inactive: 16.5%,–
COC(=O)N1CCC2(CC1)CN(c1ccccc1)C2,inactive: 1.71%,–
OC1(c2ccc3c(c2)CN(Cc2ccccn2)CCO3)CCN(c2ccccc2F)CC1,inactive: 0.821%,–
CN(C)Cc1ccccc1-c1cncnc1NCc1ccccc1,inactive: 8.41%,–
Brc1ccccc1-c1ccccc1,inactive: 36.8% [at 320 µM],–
N#Cc1ccc(CN2CCCC3(CCN(C(=O)c4cccc(F)c4)CC3)C2)cc1,inactive: 3.94%,–
O=C(C[n+]1cccc2cc(Cl)ccc21)c1ccc(I)cc1,inactive: -17.6%,–
CC(C)C[C@@H](CO)N1CCN(Cc2ccc([N+](=O)[O-])cc2)CCC1=O,inactive: 2.45%,–
COc1cc(OC)c(CN2CCOc3ccc(CN4CCC(O)CC4)cc3C2)c(OC)c1,inactive: 5.93%,–
CC(C)(Oc1ccc(C2CC2(Cl)Cl)cc1)C(=O)O (configuration not stated),inactive,–
COCCn1c(=O)c(-c2ccc(F)c(F)c2)nc2cncnc21,inactive: -6.94%,–
CCCCC[C@H](O)/C=C/[C@@H]1[C@@H](CCCCCCC(=O)O)[C@@H](O)C[C@H]1O,inactive: 1.78% [at 15.3 µM],–
Cc1cc(C(=O)NCCN2Cc3ccccc3OC(c3ccccc3F)C2)no1 (configuration not stated),inactive: 20%,–
N[C@@H](CSS(=O)(=O)O)C(=O)O,inactive,–
CS(=O)(=O)Nc1cccc(-c2nccc(-n3ccnc3)n2)c1,inactive: 22.7%,–
Cc1cnc(-n2ncc(C(=O)N(C)CCc3ccccn3)c2-c2cccs2)nc1-c1ccc(F)cc1,inactive: 10.8%,–
COC1[C@H](OC(N)=O)C(O)[C@H](Oc2ccc3c(O)c(NC(=O)c4ccc(O)c(CC=C(C)C)c4)c(=O)oc3c2C)OC1(C)C (some centres not stated),inactive: 10%,–
O=C(c1cccc(F)c1)N(Cc1cc2cc3c(cc2nc1N1CCOCC1)CCC3)CC1CCCO1 (configuration not stated),inactive: 27.7%,–
COCCN1CCN(C(=O)c2cnn(-c3ncc4c(n3)-c3ccc(OC)cc3CC4)c2C2CC2)CC1,inactive: -11%,–
COc1ncc2ncc(=O)n(C)c2n1,inactive: 12%,–

SMILES,"activity change, negative = inhibition",Potency
CCN(CC)c1ccc(/C=C/c2ccncc2)cc1,inactive: -25%,–
CN1CCN(c2cc(-c3ccccc3Cl)ncn2)CC1,inactive: 11.2%,–
CC(C)CN1CCC(=O)N([C@H](COc2ccccc2)c2ccccc2)CC1,inactive: -12.3%,–
COc1cc(C)c2c(=O)cc(-c3ccccc3)oc2c1,inactive: 1.18%,–
CC(C)NC(=O)N1CC[C@@]2(CCCN(C(=O)c3ccncc3)C2)C1,inactive: 15.2%,–
COc1ccc(Cl)cc1N1C(=O)[C@@H]2C[C@H]1CN2Cc1nc2ccccc2nc1C,inactive: 0.568%,–
CC(CCC(=O)O)C1CCC2C3C(O)C[C@@H]4CC(O)CC[C@@]4(C)C3CC[C@@]12C (some centres not stated),inactive,–
CCNc1ncc2nc(-c3cc(F)cc(F)c3)c(=O)n(CCOC)c2n1,inactive: 5.64%,–
Cn1c(=O)c2c(ncn2CC(O)CO)n(C)c1=O (configuration not stated),inactive,–
C=CCCCCCCCCC(=O)OC,inactive: 15.3%,–
COc1ccc(C(=O)N2CCC3(CC2)CCN(c2cccc(-c4ccccc4)c2)CC3)cc1,inactive: 6.89%,–
COc1ccc(-c2nc3cnc(N4CCNCC4)nc3n(C3CC3)c2=O)cc1,inactive: 13.9%,–
NCCC(=O)N[C@@H](Cc1cnc[nH]1)C(=O)O,inactive: 9.17%,–
NC(=O)c1cccnc1,inactive: 16.9%,–
CO/N=C(\C(=O)N[C@@H]1C(=O)N2C(C(=O)O)=C(COC(C)=O)CS[C@H]12)c1csc(N)n1 (stereo in doubt),inactive: 9.93%,–
Cc1cnc(CNc2cc(-c3cccc(NS(C)(=O)=O)c3)ncn2)cn1,inactive: 3.6%,–
Cc1cccc(CNc2ncnc3ccc(-c4ccccc4CN(C)C)cc23)c1,inactive: 26%,–
COc1cc(-c2cc(C)c3cccc(OC)c3n2)cc2c1OCCN(C(=O)CC1NC(=O)c3ccccc31)C2 (configuration not stated),inactive: 13.2%,–
COc1ccc(-c2nc3cnc(OC)nc3n(CCc3ccccc3)c2=O)cc1,inactive: 4.25%,–
Nc1nccs1,inactive: 12.4%,–
NS(=O)(=O)c1cc2c(cc1Cl)N[C@@H]([C@@H]1C[C@@H]3C=C[C@H]1C3)NS2(=O)=O,inactive: -3.09%,–
O=C(O)CCc1nc2ccccc2[nH]1,inactive: 10.1%,–
C[N+]1(CC(=O)c2ccc(I)cc2)CCCc2ccccc21 (configuration not stated),inactive: -7.84%,–
CC(C)(O)C#Cc1ccc(CN2CCc3nnc(CNC(=O)c4cccc(F)c4)n3CC2)cc1,inactive: 2.11%,–
